Results published in the supplement of paper PMC12217912.
The list shows a part of the results. Sequences were assembled here from the parent chain. Values near 0.05 are background.

B1: TEV protease; numbered along this chain (parent)
chain: MGESLFKGPRDYNPISSSICHLTNESDGHTTSLYGIGFGPFIITNKHLFRRNNGTLVVQSLHGVFKVKDTTTLQQHLVDGRDMIIIRMPKDFPPFPQKLKFREPQREERICLVTTNFQTKSMSSMVSDTSCTFPSGDGIFWKHWIQTKDGQCGSPLVSTRDGFIVGIHSASNFTNTNNYFTSVPKNFMELLTNQEAQQWVSGWRLNADSVLWGGHKVFMVKPEEPFQPVKEATQL

Variants of: B1
Assay: raw area under fraction-flipped curve 0-4 h after induction (AUC4h, not background-subtracted), DNA-recorder readout of cleavage of the substrate (dimensionless); higher = more cleavage of the substrate by the protease variant
Details: temperature: 34 °C; time window: 0-4 h after rhamnose induction
Description: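 In vivo DNA recorder in E. coli TOP10(DE3) ΔrhaA at 34 °C. Each TEVp single-site mutant (parent TEVp 0) is paired with a single-site variant of the 7-mer TEVs (canonical ENLYFQ|S). The substrate sits between flexible linkers in a Bxb1-sfGFP-TEVs-SsrA fusion, so cleavage stabilises Bxb1 and speeds flipping of a recombination array, read by NGS. The value is the raw area under the fraction-flipped curve over 0-4 h after rhamnose induction (AUC4h), with ≥20 reads per time point. It is not background-subtracted; inactive controls average about 0.047.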
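Further: Bxb1 expression induced with 0.2% (w/v) L-rhamnose at OD600 near 0.5, cultures sampled hourly, flipped fraction per protease–substrate barcode pair counted by paired-end Illumina sequencing.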

Row | Variant | area with substrate ENLYFAS | area with substrate ENLYFDS | area with substrate ENLYFFS | area with substrate ENLYFGS | area with substrate ENLYFIS | area with substrate ENLYFMS | area with substrate ENLYFNS | area with substrate ENLYFPS | area with substrate ENLYFRS | area with substrate ENLYFTS | area with substrate ENLYFVS | area with substrate ENLYFWS | area with substrate ENLYFYS | area with substrate ENLYFCS | area with substrate ENLYFES | area with substrate ENLYFHS | area with substrate ENLYFKS | area with substrate ENLYFLS | area with substrate ENLYFSS
1 | MGESLFKGPRDYNPISSSICHLTNESDGHTTSLYGIGFGPFIITNKHLFRRNNGTLVVQSLHGVFKVKDTTTLQQHLVDGRDMIIIRMPKDFPPFPQKLKFREPQREERICLVTTNFQTKSMSSMVSDTSCTFPSGDGIFWKHWIWTKDGQCGSPLVSTRDGFIVGIHSASNFTNTNNYFTSVPKNFMELLTNQEAQQWVSGWRLNADSVLWGGHKVFMVKPEEPFQPVKEATQL [Q146W] | 0.0792 | 0.0226 | 0.0424 | 0.0542 | 0.0518 | 0.0855 | 0.0647 | 0.0431 | 0.077 | 0.0662 | 0.0544 | 0.0636 | 0.0509 | – | – | – | – | – | –
2 | MGESLFKGPRDYNPISSSICHLTNESDGHTTSLYGIGFGPFIITNKHLFRRNNGTLVVQSLHGVFKVKDTTTLQQHLVDGRDMIIIRMPKDFPPFPQKLKFREPQREERICLVTTNFQTKSMSSMVSDTHCTFPSGDGIFWKHWIQTKDGQCGSPLVSTRDGFIVGIHSASNFTNTNNYFTSVPKNFMELLTNQEAQQWVSGWRLNADSVLWGGHKVFMVKPEEPFQPVKEATQL [S130H] | 0.0559 | – | 0.0544 | – | 0.0613 | 0.0701 | – | 0.0377 | – | – | – | – | – | 0.0582 | 0.0588 | 0.0343 | 0.0493 | 0.0666 | 0.0587
3 | MGESLFKGPRDYNPISSSICHLTNESDGHTTSLYGIGFGPFIITNKHLFRRLNGTLVVQSLHGVFKVKDTTTLQQHLVDGRDMIIIRMPKDFPPFPQKLKFREPQREERICLVTTNFQTKSMSSMVSDTSCTFPSGDGIFWKHWIQTKDGQCGSPLVSTRDGFIVGIHSASNFTNTNNYFTSVPKNFMELLTNQEAQQWVSGWRLNADSVLWGGHKVFMVKPEEPFQPVKEATQL [N52L] | 0.0502 | – | 0.0753 | – | 0.0585 | 0.0589 | 0.0665 | 0.0618 | 0.0764 | – | 0.0641 | – | 0.0593 | 0.0587 | 0.0646 | 0.0643 | 0.0665 | 0.105 | 0.0641
4 | MGESLPKGPRDYNPISSSICHLTNESDGHTTSLYGIGFGPFIITNKHLFRRNNGTLVVQSLHGVFKVKDTTTLQQHLVDGRDMIIIRMPKDFPPFPQKLKFREPQREERICLVTTNFQTKSMSSMVSDTSCTFPSGDGIFWKHWIQTKDGQCGSPLVSTRDGFIVGIHSASNFTNTNNYFTSVPKNFMELLTNQEAQQWVSGWRLNADSVLWGGHKVFMVKPEEPFQPVKEATQL [F6P] | 0.0491 | 0.0637 | – | 0.0552 | 0.0592 | – | 0.07 | – | – | 0.0512 | 0.0278 | 0.0557 | – | 0.0523 | 0.0745 | 0.0656 | 0.0539 | – | 0.0672
5 | MGESLFKGPRDYNPISSSICHLTNESDGHTTSLYGIGFGPFIITNKHLFRRENGTLVVQSLHGVFKVKDTTTLQQHLVDGRDMIIIRMPKDFPPFPQKLKFREPQREERICLVTTNFQTKSMSSMVSDTSCTFPSGDGIFWKHWIQTKDGQCGSPLVSTRDGFIVGIHSASNFTNTNNYFTSVPKNFMELLTNQEAQQWVSGWRLNADSVLWGGHKVFMVKPEEPFQPVKEATQL [N52E] | 0.0658 | – | 0.0758 | – | 0.06 | 0.0551 | – | – | 0.053 | – | – | 0.0578 | 0.0635 | 0.0726 | 0.0609 | – | 0.0802 | – | 0.0336
6 | MGESLFKGPRDYNPISSSICHLTNESDGHTTSLYGIGFGPFIITNKHLFRRNNGTLVVQSLHGVFKVKDTTTLQQHLVDGRDMIIIRMPKDFPPFPQKLKFREPQREERICLVTTNFQTKSMSSMVSDTSCTFPSGDGIFWKHWIQTKDGQCGSPLVSTRDGFIVGIHEASNFTNTNNYFTSVPKNFMELLTNQEAQQWVSGWRLNADSVLWGGHKVFMVKPEEPFQPVKEATQL [S169E] | 0.0597 | 0.0575 | – | – | 0.0644 | 0.0503 | 0.055 | 0.0678 | – | – | 0.0569 | – | – | 0.0555 | 0.0767 | 0.0515 | 0.0639 | 0.0548 | –
7 | MGESLFKGPRDYNPISSSICHLTNESDGHTTSLYGIGFGPFIITNKHLFRRNNGTLVVQSLHGVFKVKDTTTLQQHLVDGRDMIIIRMPKDFPPFPQKLKFREPQREERICLVTTNFQTKSMCSMVSDTSCTFPSGDGIFWKHWIQTKDGQCGSPLVSTRDGFIVGIHSASNFTNTNNYFTSVPKNFMELLTNQEAQQWVSGWRLNADSVLWGGHKVFMVKPEEPFQPVKEATQL [S123C] | 0.0604 | 0.0639 | – | – | – | 0.0666 | – | 0.0631 | 0.0529 | 0.0623 | 0.0527 | 0.0564 | 0.0537 | 0.0662 | 0.0734 | – | 0.0606 | – | 0.0571
8 | MGESLFKGPRDYNPISSSICHLTNESDGHTTSLYGIGFGPFIITNKHLFRRNNGTLVVQSLHGVFKVKDTTTLQQHLVDGRDMIIIRMPKDFPPFPQKLKFREPQREERICLVTTNFQTKSMSSMVSDTSCTFPSGDGIFWKHWIQTKDGQCGSPLVSTRDGFIVGIHSASNFTNTNNYFTSVPKNFMELLTNQEAQQWVSGWRLNADSVLWGGHKVFMVKPSEPFQPVKEATQL [E223S] | 0.0474 | 0.0671 | 0.0639 | 0.0647 | 0.0613 | 0.0563 | 0.0614 | 0.0552 | 0.0668 | 0.0519 | – | 0.0984 | 0.0666 | 0.0754 | – | – | – | – | –
9 | MGESLFKGPRDYNPISSSICHLTNESDGHTTSLYGIGFGPFIITNKHLFRRNNGTLVVQSLHGVFKVKDTTTLQQHLVDGRDMIIIRMPKDFPPFPQKLKFREPQREERICLVTTNFQTKSMSSMVSDTSCTFPSGDGIFWKHWIQTKDGQNGSPLVSTRDGFIVGIHSASNFTNTNNYFTSVPKNFMELLTNQEAQQWVSGWRLNADSVLWGGHKVFMVKPEEPFQPVKEATQL [C152N] | 0.0546 | – | 0.0754 | – | 0.0552 | – | – | 0.0544 | 0.0584 | 0.0388 | – | – | 0.0634 | 0.0536 | 0.0628 | – | – | 0.0686 | 0.0692
